# Experimental data published in PMC4336329 (PLoS ONE, 2015).
# In all, about 310,000 compounds went through this assay and about 14,000 (4.5%) showed an effect of 50% or more. The effect is printed as a negative number. The list shows a part of the results.
# Biological target: human ether-à-go-go-related gene (hERG) potassium channel (human, UniProt Q12809)
# Experiment: primary screen, population patch clamp on CHO cells stably expressing hERG
# 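Note: peak tail current of the secondary pulse compared with the same well before compound.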
# Chain of human ether-à-go-go-related gene (hERG) potassium channel (Q12809 whole entry, looked up): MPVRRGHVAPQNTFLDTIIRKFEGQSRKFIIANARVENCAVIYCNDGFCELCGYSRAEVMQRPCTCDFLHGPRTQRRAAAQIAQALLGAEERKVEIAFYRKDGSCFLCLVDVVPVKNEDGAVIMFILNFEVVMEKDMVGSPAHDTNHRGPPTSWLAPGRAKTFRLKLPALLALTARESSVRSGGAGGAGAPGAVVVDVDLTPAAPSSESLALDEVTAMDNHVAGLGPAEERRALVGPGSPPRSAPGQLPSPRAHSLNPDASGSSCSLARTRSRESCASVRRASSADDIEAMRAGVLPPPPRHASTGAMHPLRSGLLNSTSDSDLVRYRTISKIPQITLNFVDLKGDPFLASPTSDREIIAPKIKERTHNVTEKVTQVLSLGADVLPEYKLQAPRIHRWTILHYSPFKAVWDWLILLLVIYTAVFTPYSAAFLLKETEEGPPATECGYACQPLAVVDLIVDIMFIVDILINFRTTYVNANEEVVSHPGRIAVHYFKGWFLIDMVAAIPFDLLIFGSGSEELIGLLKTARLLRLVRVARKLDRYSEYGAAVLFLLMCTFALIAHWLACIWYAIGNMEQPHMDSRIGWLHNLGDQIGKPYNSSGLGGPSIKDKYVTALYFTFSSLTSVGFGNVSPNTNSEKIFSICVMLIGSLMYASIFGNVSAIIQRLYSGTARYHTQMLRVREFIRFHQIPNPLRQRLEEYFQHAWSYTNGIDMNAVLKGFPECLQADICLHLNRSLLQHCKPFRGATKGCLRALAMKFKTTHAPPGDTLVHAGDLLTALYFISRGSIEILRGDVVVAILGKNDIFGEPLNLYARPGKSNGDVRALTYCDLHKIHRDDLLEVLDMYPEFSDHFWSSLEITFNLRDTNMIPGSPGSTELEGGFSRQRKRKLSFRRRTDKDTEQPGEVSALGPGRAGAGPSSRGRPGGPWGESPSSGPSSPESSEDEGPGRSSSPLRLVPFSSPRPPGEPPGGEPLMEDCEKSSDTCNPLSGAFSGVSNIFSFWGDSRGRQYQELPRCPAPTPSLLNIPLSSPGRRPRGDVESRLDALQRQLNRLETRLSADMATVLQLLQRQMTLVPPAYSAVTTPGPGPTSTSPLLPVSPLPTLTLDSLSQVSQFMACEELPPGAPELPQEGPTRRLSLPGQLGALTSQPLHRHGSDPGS
row,SMILES,"hERG current change (%, negative = inhibition) at 10uM [%]"
1,CCCNC(=S)NC1CC2CCC(C1)N2Cc1ccccc1 (stereo not drawn),-35.7
2,CCOC(=O)c1cnn2c(N)c(C#N)nnc12,-2.76
3,CN(C)S(=O)(=O)c1ccc(Cl)c(C(=O)NC2CCN(Cc3ccccc3)C2)c1 (stereo not drawn),8.32
4,Cc1ccc(NC(=S)NNC(=O)Cn2nc(C(F)F)cc2C(F)F)cc1,12.6
5,CCOc1ccc(N2CC(C(=O)NCCc3ccc(F)cc3)CC2=O)cc1 (stereo not drawn),-65.8
6,CCn1c(SCC(=O)N2CCCc3ccccc32)nnc1-c1c[nH]c2ccccc12,-23.2
7,CCOC(=O)c1c(N)sc(C(O)(C(F)(F)F)C(F)(F)F)c1-c1ccc(OC)cc1OC,7.87
8,CCc1noc(C)c1C(=O)NCCc1ccccc1,7.24
9,S=C(NCc1ccc(Cl)cc1)NC1CCCCC1,-21.8
10,Cn1cccc1Cc1nnc(SCC(=O)NCc2ccco2)n1CCc1ccccc1,-19
11,Cc1ccccc1CSc1nnc2ccc(-c3ccncc3)nn12,-20.8
12,O=C(CCNS(=O)(=O)c1cccc2nsnc12)NCCC1=CCCCC1,2.43
13,Cc1cc(C)cc(NC(=O)CN2C(=O)C3CC=CCC3C2=O)c1 (stereo not drawn),4.39
14,COc1cccc(CCc2nnc(CCC(=O)NC(C)Cc3cccs3)o2)c1 (stereo not drawn),1.09
15,CCOc1ccc(N(C)S(=O)(=O)c2ccc3[nH]cc(C(=O)NCC4CCCO4)c(=O)c3c2)cc1 (stereo not drawn),9.16
16,Cc1ccccc1NC(=O)CCn1c(=O)oc2ccccc21,-3.03
17,CCOc1ccccc1NC(=O)CSc1nnc(CCC(=O)Nc2ccccc2F)n1C,-12.8
18,O=C(c1ccc2ccccc2c1)N1CCN(c2ccc(C(F)(F)F)cn2)CC1,-2
19,CN(C(=O)CN1C(=O)C2C3CC(C(Br)C3Br)C2C1=O)C1CCCCC1 (stereo not drawn),-8.93
20,COc1ccc(C(=O)NN2CC(O)=C(c3nc4ccccc4n3C)C2=N)cc1OC,-9.66
21,COc1cccc(CN(C)CC(=O)NCc2ccc(F)cc2)c1OC,6.98
22,CCNc1ccc(S(=O)(=O)NCCN(C)C)cc1[N+](=O)[O-],-25.9

row,SMILES,"hERG current change (%, negative = inhibition) at 10uM [%]"
1,O=S(=O)(c1ccc(SCc2ccccc2)nc1)N1CCCC1,-19.2
2,CCCn1cc(CN2CCC(n3nccc3NC(=O)C(OC)c3ccccc3)CC2)c(C)n1 (stereo not drawn),-14.3
3,COc1ccc2[nH]c(=O)c(CN(Cc3ccco3)C(=O)c3ccccc3)cc2c1,-4.78
4,O=C(Cc1ncon1)Nc1ccc(F)c(F)c1F,6.74
5,Cc1ccc2oc(C(=O)N3CCN(Cc4ncccc4C)CC3)c(C)c2c1,-78.3
6,CC(=O)Nc1ccc(NC(=O)C(C)OC(=O)CCC2CCCC2)cc1 (stereo not drawn),-13.8
7,Cc1ccccc1N(C(=O)Cn1nnc(-c2cccs2)n1)C(C(=O)NCCC(C)C)c1ccco1 (stereo not drawn),-5.49
8,Cc1ccc(NC(=O)COc2ccc(/C=C3/NC(=O)NC3=O)cc2)cc1,-12.2
9,COc1cc(C)ccc1NC(=O)c1ccc(S(=O)(=O)N2CCOCC2)cc1,5.58
10,COC(=O)c1cc(C(=O)OCC(=O)Nc2cc(C)on2)cc([N+](=O)[O-])c1,17.1
11,CSCC(C)N1CCC(Oc2cccc(C(=O)NCc3ccccn3)c2)CC1 (stereo not drawn),5.23
12,COc1ccc(C(CNC(=O)c2cc3ccccc3cc2OC)N2CCCC2)cc1 (stereo not drawn),-67.5
13,Cc1ccc(-c2c(C)n([O-])c3c([n+]2=O)CCCCC3)o1,-1.3
14,CN(Cc1ccccc1)C(=O)CC(c1ccccc1)c1cc(Cl)ccc1O (stereo not drawn),-5.96
15,Cc1ccc2cc(CN(Cc3ccco3)C(=S)NCC3CCCO3)c(=O)[nH]c2c1C (stereo not drawn),-22.7
16,O=C(NCCF)[C@H]1C[C@@H]1[C@H](NP(=O)(c1ccccc1)c1ccccc1)c1ccccc1,-5.14
17,COc1ccc(CN2CCC(CO)(Cc3cccc(C(F)(F)F)c3)CC2)cc1Cn1cccn1,-75.7
18,Cc1ccc(-n2c3c(cc(C(=O)NCCCN4CCOCC4)c2=O)C(=O)CC(C)(C)C3)cc1,0.0965
19,COc1ccc(OC)c(Nc2nc(N)nc(CCl)n2)c1,-2.25
20,CCOC(=O)c1ccc(N2C(=O)CC(NC3CCN(C(=O)c4cccc(Cl)c4)CC3)C2=O)cc1 (stereo not drawn),-35.9
21,COc1cc2c(cc1OC)C(COc1cc(C)cc(C)c1)N(C(C)=O)CC2 (stereo not drawn),-22.9
22,COc1cc(/C=N/NC(=S)Nc2cccnc2)cc(OC)c1O,11.5

row,SMILES,"hERG current change (%, negative = inhibition) at 10uM [%]"
1,O=C(NC1CCC(O)CC1)c1ccc(-c2ccc([N+](=O)[O-])cc2)o1 (stereo not drawn),-76.2
2,NC(=O)c1c(NC(=O)C2CCCO2)sc2c1CCCCC2 (stereo not drawn),-0.219
3,COc1ccc(NC(=O)Cn2ncn3c(cc4ccccc43)c2=O)c(OC)c1OC,11.5
4,CCOc1ccc(S(=O)(=O)NCCC(=O)NCC(c2ccc(OC)cc2)N2CCCC2)cc1 (stereo not drawn),-8.04
5,COc1cc(N)c(Cl)cc1C(=O)OCC(=O)c1ccc2c(c1)NC(=O)CO2,1.68
6,COc1ccc(C2C(C(=O)c3ccco3)=C(O)C(=O)N2CCN2CCOCC2)cc1 (stereo not drawn),6.2
7,O=C(O)CCC(=O)NCC(=O)c1ccc(F)cc1,11.5
8,C=CC[N+]1(CC=C)CCOCC1.[Br-],38.2
9,Cc1ccsc1-c1n[nH]c(=S)n1CC(C)C,21.5
10,OC1CCN(c2c3c(nc4cc(-c5ccc(F)cc5)nn24)CCC3)CC1,-7.45
11,COc1ccc(CN(C)C(=O)CNC(=O)CNC(=O)c2ccc(Cl)cc2Cl)cc1F,-43.5
12,O=C(c1ccccc1Oc1ccccc1)N1CCN(c2ccccc2)CC1,-25.7
13,COc1ccc(CC(=O)O/N=C(\N)c2ccc(C)cc2)cc1,7.58
14,Cc1ccc(NC(=S)N/N=C2\CC3CC=CC23)c(C)c1 (stereo not drawn),41.7
15,Nc1ccccc1Nc1cc(-c2cccc(Cl)c2)nn1-c1ccccc1,3.67
16,CSc1ccccc1NC(=O)c1cnccn1,9.12
17,CN(C)c1nc(NCc2ccccc2)nc(Oc2ccc(=O)[nH]n2)n1,-10.2
18,CCOC(=O)C1CCCN(C(=O)c2cccc(S(=O)(=O)N3CCOCC3)c2)C1 (stereo not drawn),15.6
19,CN(C)C(=O)CSc1nnc(Cc2ccc([N+](=O)[O-])cc2)o1,-9.75
20,Cn1c(=O)c(C(=O)CN2CC(=O)Nc3ccccc32)c(N)n(Cc2ccccc2)c1=O,20.5
21,CC(NC(=O)C(=O)NCCCn1ccnc1)c1ccccc1 (stereo not drawn),15.6
22,COc1ccc(C(C(O)C(=O)c2c[nH]c3ccccc23)N2CCN(c3ccccc3)CC2)cc1 (stereo not drawn),-13.8

row,SMILES,"hERG current change (%, negative = inhibition) at 10uM [%]"
1,COc1ccc(N2CCN(C(=O)CCCCCn3c(=O)[nH]c4ccsc4c3=O)CC2)cc1,-35.1
2,O=S1(=O)CC=C(CSC(=S)NC2CCS(=O)(=O)C2)C1 (stereo not drawn),20.5
3,CCN(CC(=O)NCc1ccc(Cl)cc1)C(=O)COc1cccc(Cl)c1,-73.5
4,CC(=O)N1CCN(c2ccc(NCc3ccc(C)s3)cc2)CC1.Cl,0.9
5,O=C(NCCc1ccc(Cl)cc1)c1cccs1,-3.58
6,COc1ccc(N2CCN(S(=O)(=O)/C=C/c3ccccc3)CC2)cc1,1.54
7,COCCNC(=O)CSc1ccc(Cl)cc1,11.9
8,O=C1c2oc3ccc(Cl)cc3c(=O)c2C(c2cccc(Br)c2)N1CCO (stereo not drawn),-13.1
9,COc1cccc(C2CC(c3ccc(Br)cc3)=NN2C(=O)c2ccncc2)c1OC (stereo not drawn),-29.7
10,CC(=O)Nc1ccc(C(=O)NN2C(=O)NC3(CCCCC3)C2=O)cc1,-6.63
11,COc1ccc(CCNC(=S)Nc2ccc(S(=O)(=O)Nc3ncccn3)cc2)cc1OC,21.2
12,COc1ccc(C(=O)N2CCCC(CCC(=O)NCc3ccc(F)c(F)c3)C2)cc1F (stereo not drawn),-22.8
13,CCC(C)(C)NC(=O)C(NS(=O)(=O)c1cccs1)c1ccccc1 (stereo not drawn),15.3
14,COc1ccc(OC)c(-c2csc(NC(=O)COC(=O)C3CC3)n2)c1,-7.02
15,CC1CCN(S(=O)(=O)c2ccc(NC(=O)C3CCN(C(=O)c4ccco4)CC3)cc2)CC1,-3.5
16,CC1(C)C=C2C(=NN(c3ccccc3)C(N)=C2C#N)CO1,4.09
17,CCCCOc1ccc(C(=O)NCC(=O)N2CC=C(c3ccccc3)CC2)cc1,16.8
18,Cc1ccc(S(=O)(=O)NCc2ccc(C(=O)NCCCN3CCC(Cc4ccccc4)CC3)cc2)cc1,-80.6
19,COc1ccc(N2CCN(CCNC(=O)Nc3ccc([N+](=O)[O-])cc3OC)CC2)cc1,-17.1
20,O=C(COC(=O)C1CCCCC1)Nc1ccc(N2CCCCC2)cc1,2.16
21,O=C1NC(=S)N/C1=C/c1cccc2ccccc12,8.5
